Laboratory results from patent US20240124575A1 (SIMCERE ZAIMING PHARMACEUTICAL, published 2024).

B1: S006-NB146-17-H2 (Fc fusion)
chain: EVQLVESGGGLVQPGGSLRLSCAASGSIFTSDDMDYAMGWYRQAPGKQREWVATITSDEDTNYVDSVKGRFTISRDNAKNSLYLQMNSLRAEDTAVYYCFANVRSDRSSLYRNYWGQGTMVTVSS[letters of human IgG1 Fc with changes left out]
B2: S006-NB146-17-H4 (Fc fusion)
chain: QVQLVESGGGLVQPGGSLRLSCAASGSIFTSDDMDYAMGWYRQAPGKQREWVATITSDEDTNYVDSVKGRFTISRDNAKNSAYLQMNSLRAEDTAVYYCFANVRSDRSSLYRNYWGQGTMVTVSS[letters of human IgG1 Fc with changes left out]
B3: S006-NB146-17-H5 (Fc fusion)
chain: EVQLVESGGGLVQPGGSLRLSCAASGSIFTSQDMDYAMGWYRQAPGKQREWVATITSDEDTNYVDSVKGRFTISRDNAKNSAYLQMNSLRAEDTAVYYCFANVRSDRSSLYRNYWGQGTMVTVSS[letters of human IgG1 Fc with changes left out]
B4: S006-NB146-17-H6 (Fc fusion)
chain: EVQLVESGGGLVQPGGSLRLSCAASGSIFTSDDMDYAMGWYRQAPGKQREWVATITSDEDTNYGDSVKGRFTISRDNAKNSAYLQMNSLRAEDTAVYYCFANVRSDRSSLYRNYWGQGTMVTVSS[letters of human IgG1 Fc with changes left out]
B5: S006-NB146-17-H7 (Fc fusion)
chain: EVQLVESGGGLVQPGGSLRLSCAASGSIFTSDDMDYAMGWYRQAPGKQREWVATITSDEDTNYVDSVKGRFTISRDSAKNSAYLQMNSLRAEDTAVYYCFANVRSDRSSLYRNYWGQGTMVTVSS[letters of human IgG1 Fc with changes left out]
B6: S006-NB146-17-H8 (Fc fusion)
chain: EVQLVESGGGLVQPGGSLRLSCAASGSIFTSNDMDYAMGWYRQAPGKQREWVATITSDEDTNYVDSVKGRFTISRDSAKNSAYLQMNSLRAEDTAVYYCFANVRSDRSSLYRNYWGQGTMVTVSS[letters of human IgG1 Fc with changes left out]
B7: S006-NB146-17-H9 (Fc fusion)
chain: EVQLVESGGGLVQPGGSLRLSCAASGSIFTSDDMDYAMGWYRQAPGKQREWVATITSDEDTNYVDSVKGRFTISRDNAKNSAYLQMNSLKPEDTAVYYCFANVRSDRSSLYRNYWGQGTMVTVSS[letters of human IgG1 Fc with changes left out]
B8: S006-NB146-17-H3 (Fc fusion)
chain: EVQLVESGGGLVQPGGSLRLSCAASGSIFTSDDMDYAMGWYRQAPGKQREWVATITSDEDTNYVDSVKGRFTISRDNAKNSAYLQMNSLRAEDTAVYYCFANVRSDRSSLYRNYWGQGTMVTVSS[letters of human IgG1 Fc with changes left out]
B9: S006-NB146-17-H1 (Fc fusion)
chain: EVQLVESGGGLVQPGGSLRLSCAASGSIFTSDDMDYAMGWYRQAPGKQREWVATITSDEDTYYVDSVKGRFTISRDNAKNSLYLQMNSLRAEDTAVYYCFANVRSDRSSLYRNYWGQGTMVTVSS[letters of human IgG1 Fc with changes left out]
B10: S006-NB146-60-H3 (Fc fusion)
chain: EVQLVESGGGLVQPGGSLRLSCAASRSTSSLSLMSWHRQAPGKQRELVASITSGGKANYVDSVKGRFTISRDNAKNSLYLQMNSLRAEDTAVYYCHAYDRAGTASGFGAAWGQGTMVTVSS[letters of human IgG1 Fc with changes left out]
B11: S006-NB146-60-H6 (Fc fusion)
chain: EVQLVESGGGLVQPGGSLRLSCAASRSTSSLSLMSWHRQAPGKQRELVASITSGGKANYVDSVKGRFTISRNDAKNSLYLQMNSLRAEDTAVYYCHAYDRAGTASGFGAAWGQGTMVTVSS[letters of human IgG1 Fc with changes left out]
B12: S006-NB146-60-H4 (Fc fusion)
chain: EVQLVESGGGLVQPGGSLRLSCAASRSTSSLSLMSWHRQAPGKQRELVASITSGGKANYVDSVKGRFTMSRDNAKNSVYLQMNSLRAEDTAVYYCHAYDRAGTASGFGAAWGQGTMVTVSS[letters of human IgG1 Fc with changes left out]
B13: S006-NB146-60-H5 (Fc fusion)
chain: EVQLVESGGGLVQPGGSLRLSCAASRSTSSLSLMSWHRQAPGKQRELVASITSGGKANYVDSVKGRFTISRDDAKNSLYLQMNSLRAEDTAVYYCHAYDRAGTASGFGAAWGQGTMVTVSS[letters of human IgG1 Fc with changes left out]
B14: S006-NB146-60-H7 (Fc fusion)
chain: EVQLVESGGGLVQPGGSLRLSCAASRSTSSLSLMSWHRQAPGKQRELVASITSGGKANYVDSVKGRFTISRDNAKNSLYLQMNSLKPEDTAVYYCHAYDRAGTASGFGAAWGQGTMVTVSS[letters of human IgG1 Fc with changes left out]
B15: S006-NB147-225-H5 (Fc fusion)
chain: EVQVVESGGGLVQPGGSLRLSCAASGFTFSNYAMSWVRQAPGKGLEWVAEINSGGDNTYYAYFVKGRFTISRDNAKNSLYLQMNSLKPEDTATYYCAREEENAGTILQGQGTQVTVSS[letters of human IgG1 Fc with changes left out]

Target: T1, human CD33-his protein (human, UniProt P20138 18-259)
T1 construct: range 18-259; bought protein; also called hCD33-his; recombinant human CD33-his; not shown: His tag
Test: SPR (Biacore), antibody captured on Protein A chip, human CD33-his analyte

T1 sequence (P20138 18-259 limits assumed): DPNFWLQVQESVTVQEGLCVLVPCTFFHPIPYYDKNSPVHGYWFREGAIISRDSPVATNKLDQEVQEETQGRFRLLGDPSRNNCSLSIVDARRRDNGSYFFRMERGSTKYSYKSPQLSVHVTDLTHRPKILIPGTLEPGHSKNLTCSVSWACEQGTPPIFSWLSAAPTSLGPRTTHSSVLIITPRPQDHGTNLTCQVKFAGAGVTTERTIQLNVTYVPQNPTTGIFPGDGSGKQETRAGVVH

Row | Binder | Kd | koff | kon
1 | B1 | 2.11 nM | 0.000103 s⁻¹ | 48700 M⁻¹ s⁻¹
2 | B2 | 0.853 nM | 6.68e-05 s⁻¹ | 78300 M⁻¹ s⁻¹
3 | B3 | 0.92 nM | 7.11e-05 s⁻¹ | 77300 M⁻¹ s⁻¹
4 | B4 | 0.598 nM | 4.47e-05 s⁻¹ | 74900 M⁻¹ s⁻¹
5 | B5 | 1.06 nM | 7.6e-05 s⁻¹ | 71600 M⁻¹ s⁻¹
6 | B6 | 1.07 nM | 7.69e-05 s⁻¹ | 71700 M⁻¹ s⁻¹
7 | B7 | 1.21 nM | 8.86e-05 s⁻¹ | 73200 M⁻¹ s⁻¹
8 | B8 | 1.33 nM | 9.69e-05 s⁻¹ | 73000 M⁻¹ s⁻¹
9 | B9 | 161 nM | 0.00376 s⁻¹ | 23400 M⁻¹ s⁻¹
10 | B10 | 27.2 nM | 0.000507 s⁻¹ | 18600 M⁻¹ s⁻¹
11 | B11 | 69.8 nM | 0.000815 s⁻¹ | 11700 M⁻¹ s⁻¹
12 | B12 | 3.49 nM | 0.000151 s⁻¹ | 43200 M⁻¹ s⁻¹
13 | B13 | 55.3 nM | 0.000817 s⁻¹ | 14800 M⁻¹ s⁻¹
14 | B14 | 22.9 nM | 0.000425 s⁻¹ | 18500 M⁻¹ s⁻¹
15 | B15 | 13.9 nM | 0.000498 s⁻¹ | 35900 M⁻¹ s⁻¹
